Source: the supplement of paper PMC7826260
This is one part of the list. One pool of 16,384 single-stranded DNAs met each Rep nickase domain in vitro (3 µM enzyme, 1 h, 37 °C); shown is the middle of each 90-letter strand. Values are log2 of uncut reads against the no-enzyme pool; uncut sequences lie near 0, cut ones below; no hit call is given. The scaling is to total reads, so uncut sequences can rise above 0 when many others are cut.

Columns and labels:
Assay in all cases: uncleaved DNA left, log2 of reads against the no-enzyme library (log2 ratio); higher = less cleavage (more negative = more Rep cleavage of the k-mer); sequences stand for … in CTCGTCCG…ACCGGAGA
[1] = tested on: T1, Rep nickase domain of Muscovy duck circovirus
T1 sequence (residues 1-111, tag not shown): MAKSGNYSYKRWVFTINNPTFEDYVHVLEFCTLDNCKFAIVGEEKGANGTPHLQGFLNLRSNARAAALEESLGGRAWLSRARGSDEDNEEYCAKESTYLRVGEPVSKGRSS
Experimental: (§1)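 A pool of 90-nt single-stranded DNAs with seven random bases just before the constant AC of the nick site (name = the seven bases) was cut by 3 µM recombinant His6-SUMO-tagged Rep nickase domain (300 nM DNA, 50 mM HEPES pH 8.0, 50 mM NaCl, 1 mM MnCl2, 1 h, 37 °C, three replicates). Uncut DNA was amplified and sequenced.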

[2] = tested on: T2, Rep nickase domain of banana bunchy top virus
T2 sequence (residues 1-94, tag not shown): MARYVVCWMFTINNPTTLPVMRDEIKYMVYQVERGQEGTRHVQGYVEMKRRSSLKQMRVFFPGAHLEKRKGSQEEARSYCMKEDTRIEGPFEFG
Experimental: as §1

[3] = tested on: T3, Rep nickase domain of cabbage leaf curl virus
T3 sequence (residues 1-116, tag not shown): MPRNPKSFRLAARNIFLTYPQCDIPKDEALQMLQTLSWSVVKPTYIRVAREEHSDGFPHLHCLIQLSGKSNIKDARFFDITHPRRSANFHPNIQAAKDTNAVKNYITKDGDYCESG
Experimental: as §1

[4] = tested on: T4, Rep nickase domain of chickpea chlorotic dwarf virus
T4 sequence (residues 1-124, tag not shown): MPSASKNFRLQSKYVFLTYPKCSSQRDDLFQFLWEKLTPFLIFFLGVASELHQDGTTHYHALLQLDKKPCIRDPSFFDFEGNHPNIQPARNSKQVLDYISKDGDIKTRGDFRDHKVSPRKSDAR
Experimental: as §1

[5] = tested on: T5, Rep nickase domain of faba bean necrotic yellows virus
T5 sequence (residues 1-98, tag not shown): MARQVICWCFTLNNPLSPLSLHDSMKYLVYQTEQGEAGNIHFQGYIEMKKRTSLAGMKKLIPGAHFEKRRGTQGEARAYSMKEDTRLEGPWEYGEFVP
Experimental: as §1

[6] = tested on: T6, Rep nickase domain of maize striate mosaic virus
T6 sequence (residues 1-117, tag not shown): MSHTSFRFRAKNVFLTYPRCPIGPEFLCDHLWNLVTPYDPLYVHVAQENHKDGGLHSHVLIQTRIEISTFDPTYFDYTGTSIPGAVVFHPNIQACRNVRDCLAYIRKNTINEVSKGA
Experimental: as §1

[7] = tested on: T7, Rep nickase domain of porcine circovirus 2
T7 sequence (residues 2-116, tag not shown): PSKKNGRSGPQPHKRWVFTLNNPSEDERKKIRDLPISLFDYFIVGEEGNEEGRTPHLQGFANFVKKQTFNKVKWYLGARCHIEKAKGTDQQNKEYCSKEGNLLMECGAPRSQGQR
Experimental: as §1

[8] = tested on: T8, Rep nickase domain of tomato golden mosaic virus
T8 sequence (residues 1-124, tag not shown): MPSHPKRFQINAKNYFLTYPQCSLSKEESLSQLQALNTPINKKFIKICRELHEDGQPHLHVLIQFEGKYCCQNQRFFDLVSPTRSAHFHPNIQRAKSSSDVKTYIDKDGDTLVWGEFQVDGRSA
Experimental: as §1

[9] = tested on: T9, Rep nickase domain of tomato yellow leaf curl virus
T9 sequence (residues 1-136, tag not shown): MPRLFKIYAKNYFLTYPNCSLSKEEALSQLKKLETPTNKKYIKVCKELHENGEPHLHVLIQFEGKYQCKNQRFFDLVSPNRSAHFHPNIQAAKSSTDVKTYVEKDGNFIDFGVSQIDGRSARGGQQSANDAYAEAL
Experimental: as §1

[10] = tested on: T10, Rep nickase domain of wheat dwarf virus
T10 sequence (residues 1-137, tag not shown): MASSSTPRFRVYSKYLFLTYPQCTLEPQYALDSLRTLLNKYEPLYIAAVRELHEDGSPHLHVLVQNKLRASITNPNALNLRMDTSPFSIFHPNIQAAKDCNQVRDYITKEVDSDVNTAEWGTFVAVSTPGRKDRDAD
Experimental: as §1

Sequence	uncleaved DNA left (log2) [1]	uncleaved DNA left (log2) [2]	uncleaved DNA left (log2) [3]	uncleaved DNA left (log2) [4]	uncleaved DNA left (log2) [5]	uncleaved DNA left (log2) [6]	uncleaved DNA left (log2) [7]	uncleaved DNA left (log2) [8]	uncleaved DNA left (log2) [9]	uncleaved DNA left (log2) [10]
TAACTGC	0.0326	-0.098	-0.305	-0.929	-0.00263	-0.457	0.0492	-0.141	-0.0995	-0.0369
GTGCCTT	-0.00235	-0.0417	0.292	0.73	-0.0716	1.48	0.0824	0.019	0.0813	0.088
CCTCGGA	0.0413	-0.0232	0.124	0.446	0.00245	0.21	0.092	-0.027	-0.0236	-0.0479
TATCCCC	-0.215	-0.114	0.0645	-0.394	-0.1	0.0306	-1.56	-0.23	-0.0536	-0.0109
TTGGACT	0.00708	0.104	0.625	1.24	-0.0524	1.9	0.153	-0.0752	0.0569	0.107
ATGAATT	-0.214	-0.413	-0.273	-2.17	-0.238	-0.439	-2.62	-0.224	-0.113	-0.137
GTACCGA	0.112	0.0416	0.277	0.514	0.0419	0.618	0.0736	0.0554	0.0272	0.118
GGGACTC	-0.0964	0.000357	0.837	2.02	-0.0809	2.23	0.0572	-0.0652	-0.161	0.0401
CCCCCGA	0.00482	-0.0145	-0.276	-0.507	0.0384	-0.628	0.0222	0.111	0.00456	-0.046
CCGTGTT	-2.47	-0.78	-2.11	-1.85	-1.93	-0.858	-2.57	-1.96	-0.057	-2.34
CAGCCTC	-0.167	-0.164	-0.101	-0.167	-0.0974	0.103	-0.243	-0.146	-0.185	-0.173
AGCCCAG	0.101	0.0615	-0.25	-0.0285	0.018	-0.531	0.184	0.105	0.0887	0.104
CATTAAG	-0.0726	-0.0524	-0.544	0.832	-0.0343	-0.242	0.19	0.00404	0.0696	0.00983
CGGAGAA	-0.0762	-0.128	0.321	0.688	-0.0794	0.505	-0.0943	-0.204	-0.116	-0.0135
CGCTCTG	0.159	0.0405	0.118	0.604	0.0988	1.3	0.175	0.0289	0.0242	0.224
TCACGAC	0.0916	0.0355	0.0843	-0.0364	0.0364	-0.316	0.14	0.123	-0.0463	-0.00772
GAGGACT	-0.0979	0.104	0.833	1.97	-0.0699	2.21	0.146	0.109	0.0638	0.211
TTGGGGC	-0.0455	-0.0513	0.594	1.3	-0.0622	1.61	0.0998	-0.022	-0.116	-0.1
AGTGAAC	0.0187	-0.0129	0.0535	0.579	-0.0443	1.06	0.136	0.0425	-0.102	0.1
GTCGATA	-0.0917	0.0274	0.292	0.714	-0.0309	1.49	-0.00626	0.079	-0.195	0.0385
AAAAGTT	-0.222	-0.165	-3.57	-2.86	-0.107	-1.73	-2.73	-0.9	-0.163	-2.29
GTATCGG	-0.0551	-0.00823	0.488	1.44	0.000558	2	0.00479	0.0768	-0.0307	-0.0668
GAATTAC	0.0972	0.0363	-0.0772	-0.909	0.0984	0.53	-0.0275	0.034	0.158	0.0236
GGAGCGC	-0.0472	0.00934	0.0617	0.388	0.00245	0.211	0.112	0.0793	0.00494	-0.0342
CATCCCG	0.00162	-0.0352	-0.932	0.0234	-0.0676	-0.876	0.00999	-0.103	-0.0883	-0.228
CAGTGTA	-0.0726	-0.731	-0.196	-1.2	-0.374	-0.565	-2.6	0.00332	0.106	0.0673
CGATTCT	-1.77	-0.0185	-0.137	-1.68	-0.0352	-0.579	-1.79	-0.0443	0.0733	-0.0175
CGTCCCA	-0.0139	-0.0209	0.138	-0.235	-0.0103	-0.0255	-0.261	-0.0229	-0.0669	0.158
GGATTCG	0.0963	0.0373	-0.659	-0.017	0.0213	-0.626	0.176	0.0144	0.11	-0.0613
GATTCAC	-0.0133	0.0331	0.172	0.694	-0.0605	0.79	-0.0269	-0.066	0.087	0.135
